# Over roughly 33,000 sequences, “E-score (-0.5 to 0.5)” has its median near -0.016; the highest 2% begin near 0.31. The list shows a part of the results.
# Molecular target: Cst6 (UniProt P40535)
# Test: PBM E-score (8-mer binding enrichment) (E-score (-0.5 to 0.5)); higher = stronger / more preferred TF binding; most listed sequences are background and not binding sites
# Conditions: protein concentration: 200 nM; construct: GST-DNA-binding domain
# Method in brief: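 Universal all-10-mer Agilent arrays, fresh or stripped once, were converted to double-stranded form by primer extension. GST-tagged yeast transcription factors from PURExpress in vitro transcription/translation, full-length or DNA-binding domain only, were applied at about 100-200 nM and detected with fluorescent anti-GST. After masliner normalisation, the Universal PBM Analysis Suite scored each ungapped eight-base word together with its reverse complement by E-score.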
row,Sequence,PBM E-score
1,TAATCCCA,-0.059
2,GATTGGAC,-0.212
3,CGCCTCAG,0.00359
4,ATTTGATC,0.0671
5,AATACCCC,-0.274
6,CCTAGAAC,-0.121
7,CCTATCTA,-0.174
8,ATGGAATA,0.186
9,AAAACCAG,0.0727
10,CCACTAAA,-0.0731
11,ACAACGCA,0.0232
12,AGTTGGAG,-0.123
13,CTGGTCTC,-0.345
14,GAACTGAC,0.0195
15,GCAACCAC,-0.16
16,ACCCATTG,-0.105
17,ACGTTGCC,0.0607
18,ATATTGCG,0.138
19,ACTCATTA,0.0336
20,ACAGAGCA,0.0348
21,GTCCTCGA,-0.0345
22,AATATCTC,0.084
23,CAACGCGC,0.117
24,AGCAACAA,0.222
25,ACGGTGAT,0.121

row,Sequence,PBM E-score
1,GACACCAC,-0.0664
2,AGATAAAT,0.144
3,ACGGCAGC,0.207
4,CGTAGTGA,0.0691
5,ACATACTC,0.0717
6,AATGTAGC,-0.196
7,AGGTCGCA,-0.184
8,AGGAGGGA,-0.279
9,GTTTCAAA,0.025
10,CATCGTGG,-0.2
11,ACCGTGGG,-0.275
12,TGCAGTAA,0.00191
13,GTCCGGAA,-0.183
14,ACTAGGCA,-0.0799
15,ACAGAGAT,0.178
16,CACGCACG,0.00075
17,ATTGGGTG,0.169
18,ATTTTGCC,0.134
19,ATCACTAC,0.129
20,TGTCTTAA,0.0288
21,AGTTCGGA,-0.054
22,ATTTGCAA,0.124
23,GGAACGCC,-0.161
24,ACGGCCTG,-0.00375
25,CCACCTGA,-0.109

row,Sequence,PBM E-score
1,AACACCGC,-0.177
2,AAAATCAA,0.0708
3,ACTGCGTG,-0.092
4,GCAATCTA,0.0285
5,GCAGCTCA,-0.018
6,CAGCGATC,-0.0545
7,TGATAACA,0.247
8,GTCACTCA,0.315
9,CAGGCGGA,0.0302
10,TAAAGAGA,0.0905
11,GTCCAACA,-0.0765
12,CTTATGGC,-0.087
13,AAGACCGT,-0.21
14,GCGCCTCC,-0.00818
15,TAACTCCA,-0.195
16,CTAGCCGA,-0.215
17,AGTCCCGA,-0.259
18,CTCGCTGC,-0.105
19,GGGCTTTA,-0.303
20,CACTTGTC,-0.0855
21,ACGCTGAA,-0.027
22,AGCATCAA,0.178
23,ACGTCCGG,0.102
24,AGTTAGGC,-0.0709
25,AACGTCAT,0.489

row,Sequence,PBM E-score
1,CACGTTGA,0.0783
2,GGTTCGGA,-0.234
3,AGCAAACG,0.0384
4,ATGAGCGA,0.133
5,ATTTAACC,-0.0172
6,GTTTAGCA,0.0457
7,TCTACAGA,-0.0513
8,AAGCGAGA,-0.0271
9,ACCTCGGA,-0.0521
10,GCGGCACA,0.176
11,GACCCGGC,-0.204
12,CAAATGAC,0.248
13,AATAGCAC,-0.239
14,GCGTAGTA,0.0269
15,AACTCAAC,0.0159
16,GCCAGGCC,-0.334
17,GTCATCAA,0.385
18,ATGGGATG,-0.209
19,ACCTAAGG,-0.081
20,ATTTTCGC,0.167
21,CTGGCACA,-0.162
22,AGTTGAAA,0.0658
23,CGTTTTGA,0.189
24,CCGACAAG,-0.0755
25,ATATGTGA,0.157

row,Sequence,PBM E-score
1,CCCTCTCC,-0.383
2,CCAGTGGA,-0.139
3,CATCTGCG,-0.146
4,AGATGCGA,-0.148
5,CTCCGGGA,-0.216
6,CCAAGAGA,-0.0809
7,TCGTGGAA,0.128
8,AAGAAGCC,0.115
9,CGAGATTA,0.167
10,GAGTAATA,0.23
11,ACATTACT,0.183
12,AGACTCTC,-0.289
13,CCATTAAC,0.163
14,TACCTAAA,0.14
15,GGGCGGAC,-0.365
16,CTGTGCGC,-0.0914
17,GTTGAAAC,0.0235
18,TGGCACAA,0.0795
19,ATAACTGA,0.107
20,CTTCACAC,0.0809
21,AGGTTCAA,0.0809
22,ATAGTAGG,0.0261
23,GTATCATA,0.256
24,ACGTCAGA,0.464
25,CGGTGAAG,-0.0753

row,Sequence,PBM E-score
1,AAGCCTTC,-0.216
2,CTGGACTC,-0.0699
3,GCCAAGCA,-0.133
4,ATAGCCCC,-0.277
5,CCATCAAA,0.04
6,CAGATCAA,-0.0995
7,CTAATACA,0.143
8,AAATAACA,0.24
9,GCACACGC,-0.0553
10,CCAGAAGC,-0.21
11,TAATCTAA,0.132
12,GATACGGC,0.139
13,AGTGGGAT,-0.0964
14,CCTTCCCA,0.0315
15,AAGACCCA,-0.229
16,CACCGTAG,-0.0487
17,ACTCCTAT,0.0574
18,CGCCCGCG,0.0669
19,CGGGTACA,-0.165
20,CGTTGGTC,-0.208
21,CCTTTCGC,-0.0224
22,CTACTCTC,-0.136
23,CCATCGCA,-0.104
24,GGCCTATA,-0.307
25,AATTTTAG,0.0947

row,Sequence,PBM E-score
1,AGTGCGGC,0.173
2,ATACGCTC,0.0633
3,ACGAGCAC,-0.0131
4,ACCTTCAA,-0.00754
5,CCATCTCA,-0.157
6,CAAGTCGC,-0.139
7,AGAAATTG,0.27
8,AGTGGACA,-0.0595
9,CGGGATAA,0.139
10,AGTTCAGG,-0.229
11,CACTAGAA,0.0702
12,CGAATTTC,0.116
13,CACCTCCG,-0.0809
14,ATCTAGCG,-0.191
15,CCTTTGGC,-0.225
16,CGCGTATA,0.00766
17,CGGATTAA,0.0742
18,GTCCGAAC,-0.0189
19,AGGGGCAC,-0.0879
20,CACAAACG,0.264
21,CCGTGGAC,-0.0572
22,CGAGGAGC,-0.0747
23,GCAACTAC,0.0528
24,CACGGGCC,-0.236
25,CACGACTA,-0.192

row,Sequence,PBM E-score
1,GCTAGCCA,-0.201
2,GTTACCGA,-0.0392
3,CTCTATGC,-0.114
4,TAGAACAA,-0.0259
5,AACAACTA,0.0393
6,TCCAGCGA,-0.202
7,TAGACCGA,-0.0348
8,CCTCATTC,-0.0459
9,GCCTAATA,-0.00299
10,ATGCGTCA,0.444
11,ATCGTATG,0.234
12,CTATAAAA,0.123
13,CCAACGAA,-0.00781
14,CTGAACCC,-0.201
15,GCGACAAC,0.127
16,AAGTAACC,0.0322
17,GTACTCCA,-0.115
18,GAATTCTA,0.162
19,GAAGTTCC,-0.244
20,CGAACCCC,-0.249
21,ATGTTGTC,0.209
22,AGGTGCGC,-0.0797
23,CACGACAC,-0.00941
24,CCACAAGA,-0.174
25,CCGGCGGC,-0.195

row,Sequence,PBM E-score
1,ATAGCATG,-0.0918
2,GGATAAAA,0.179
3,AGACACAC,0.0262
4,CGGAATTC,-0.00018
5,ACCGTGCC,0.0391
6,CTTATTAC,0.231
7,CCCGGGCG,-0.196
8,ACGTACTG,-0.0685
9,CACGTAGG,-0.0735
10,ACGTGCTC,-0.0826
11,CAGAAGCA,-0.0549
12,ACGGCTCA,0.197
13,ATACTAAC,0.0953
14,ACGTATCG,0.2
15,AGCGAGAA,-0.126
16,TCAACAGA,0.0545
17,CGCAGTGC,-0.133
18,ACGAGTAA,0.141
19,GCTCAGTA,0.138
20,ATACAGCG,0.0671
21,CTTATAAC,0.153
22,AAAGTTTG,0.156
23,CTACCCAC,-0.347
24,CTCGGCCA,-0.0895
25,ACAATTCA,0.0932

row,Sequence,PBM E-score
1,TCCTGTAA,0.107
2,ACACCTGC,0.0948
3,ATGTATTC,0.0111
4,ACCTACTG,-0.175
5,CTGCGAGA,-0.111
6,GATCACCC,-0.0947
7,ACTGCTGG,-0.324
8,CGTGCACC,-0.0078
9,CGTTACTC,-0.0496
10,CCGGTTAA,-0.171
11,CGCAGGTA,-0.129
12,AGCCGGAC,0.0913
13,GGGGAGAA,-0.161
14,CGCCCCCC,-0.347
15,ATTTATAC,0.294
16,AATTGGCC,-0.188
17,GCCTTCCA,-0.129
18,TATCATGA,0.186
19,GACCCGAC,-0.279
20,ACCTTATA,0.0371
21,CCAAACGG,-0.104
22,ACCTAGAA,0.0235
23,AGTTGGAT,0.0717
24,CGACATAC,0.193
25,GCAGGATA,-0.119

row,Sequence,PBM E-score
1,AGTTACAC,0.216
2,GACGGCAC,0.23
3,ATATAGAG,-0.0214
4,ACCTCCTA,-0.15
5,CAGAATCG,-0.00523
6,ATTCCCTC,-0.147
7,AAGCGGGT,-0.145
8,CCTTAAGA,-0.101
9,GAACAGAA,-0.00486
10,GTAAAGTA,0.255
11,CAAGTGTC,-0.138
12,AACCAGAG,0.0738
13,CCAATGTA,-0.222
14,GCACGACC,-0.226
15,GGTGTGAA,0.186
16,CGTTGCAG,0.0462
17,ACATTAGA,0.0463
18,CCTAATAG,0.016
19,GTGCTTTA,-0.00628
20,CACACATG,-0.0556
21,GAGAGCGA,-0.221
22,CCTTTGCC,-0.153
23,AATTCGTA,0.252
24,CCGGTTGC,-0.156
25,ACACCGTG,-0.0419

row,Sequence,PBM E-score
1,AATGGCGA,0.0462
2,TCGATAAA,0.273
3,CACTTTGG,-0.0142
4,CATCTAAG,0.0936
5,AGACCTAC,-0.227
6,AGGGGTTA,-0.27
7,GCCTTCAC,-0.0467
8,CAAATTGG,0.148
9,AAATGGGA,-0.182
10,GCGAAAAA,0.197
11,AGACGGCC,-0.214
12,CCTAGCTC,-0.26
13,TAATCGAA,0.162
14,GGTTTTAA,0.0844
15,AGACCCTG,-0.246
16,AACATGCA,0.0353
17,CCACTGCA,-0.0639
18,CAAGATGG,-0.225
19,GGCTTGAA,0.0432
20,CCAACCCG,-0.122
21,GCGAGTCC,-0.272
22,CTGTCGCC,-0.137
23,ATCGGGCC,-0.234
24,GAGCTCTA,-0.186
25,CGCCTGGA,-0.179

row,Sequence,PBM E-score
1,AATCAACA,0.262
2,CTTGAGCC,-0.137
3,ACGTAAGA,0.448
4,TAATTCAA,0.217
5,GACTCGAA,-0.0659
6,GATGGCGC,-0.012
7,CGTGGATC,-0.0825
8,ATAGGCAT,-0.0819
9,CTGTCAAA,0.119
10,GTCACACA,0.29
11,ACTACTAT,0.159
12,ACCATGGC,0.0177
13,AAAAGATA,0.224
14,CCATCCCG,-0.176
15,CTTATCCA,0.152
16,AACTCCTG,-0.202
17,AACCGATA,0.0122
18,TATCTCAA,0.257
19,GATTTGCA,0.0914
20,GGCAATAC,0.0548
21,CGAGACCG,-0.184
22,GCCTTCGA,-0.182
23,AGTGGAAA,0.0231
24,AAGCAGAC,-0.148
25,CTTCATAC,0.106

row,Sequence,PBM E-score
1,ATCAACAC,0.163
2,ACATCTAG,-0.0177
3,TCTAGACA,0.0583
4,CCGTGCGA,0.228
5,CTGAAAGA,0.169
6,GTAGCGTA,-0.101
7,AGTGTGCA,-0.0156
8,CAAGACGA,-0.119
9,ACGTTGAT,0.243
10,CTGGCGGC,-0.16
11,CATAGGTA,0.0562
12,ATTTGAGC,-0.0139
13,ACAGCCCA,-0.0152
14,CGATGCAA,-0.0639
15,CCGACCGG,-0.305
16,ATGACATA,0.45
17,ATTCGATG,0.105
18,ATCGCTCA,-0.121
19,CTGGTTTC,0.00333
